# From PubChem BioAssay AID1745853 (National Center for Advancing Translational Sciences (NCATS), 2022)
# Several values for one entry are separate records, joined by “and”; a condition that tells them apart may be missing. Identical values can stand only once. The list shows a part of the results. Further columns of the screen follow, without active or inactive calls.
# Legend:
# Test in all cases: Primary Screen for Target Class Profiling of Small Molecule Inhibitors of Methyltransferases
# [1] = molecular target: Glycine N-methyltransferase (Homo sapiens) (UniProt Q14749); settings: purified enzyme, MTase-Glo SAH luminescence; measured here: GNMT inhibition; at 40 µM; stronger effect = lower value
# Outline: (§1)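 Each enzyme was reacted with SAM and its substrate, with compounds tested once at 40 uM; SAH formed was read by MTase-Glo luminescence.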
# [2] = molecular target: Guanidinoacetate N-methyltransferase (Homo sapiens) (UniProt Q14353); settings: purified enzyme, MTase-Glo SAH luminescence; measured here: GAMT inhibition; at 40 µM; stronger effect = lower value
# Outline: as §1
# [3] = molecular target: Histamine N-methyltransferase (Homo sapiens) (UniProt P50135); settings: purified enzyme, MTase-Glo SAH luminescence; measured here: HNMT inhibition; at 40 µM; stronger effect = lower value
# Outline: as §1
# [4] = molecular target: Nicotinamide N-methyltransferase (Homo sapiens) (UniProt P40261); settings: purified enzyme, MTase-Glo SAH luminescence; measured here: NNMT inhibition; at 40 µM; stronger effect = lower value
# Outline: as §1
# [5] = molecular target: Phenylethanolamine N-methyltransferase (Homo sapiens) (UniProt P11086); settings: purified enzyme, MTase-Glo SAH luminescence; measured here: PNMT inhibition; at 40 µM; stronger effect = lower value
# Outline: as §1
# On the % scale 0 is the no-effect control and ±100 the full control effect.
Structure (SMILES),"activity change, negative = inhibition [1]","activity change, negative = inhibition [2]","activity change, negative = inhibition [3]","activity change, negative = inhibition [4]","activity change, negative = inhibition [5]"
CCOC(=O)c1cnc2ccc(C)cc2c1Nc1cccc(C)c1,3.12%,-0.621%,-2.85%,-4.35%,-5.5%
C=C1C(=O)O[C@@H]2C[C@@H](C)[C@]34C[C@]5(C(=O)O[C@H]6CC(C)=C([C@H](C)CCCO)[C@H](OC(=O)C(C)CC)[C@H]65)[C@@H](C(C)=C3C[C@@H]12)[C@H]4OC(C)=O (stereo partly drawn),-4.93%,-4.24%,-3.88%,-17.2%,-14%
COC(=O)c1ncn2c1C(=O)N(c1ccc(OC)c(OC)c1)C(C)(C(=O)NCc1ccccc1OC)C2 (stereo not drawn),3.2%,0.565%,9.82%,8.18%,7.7%
COc1ccc(NC(=O)N2CCc3c2ccc2ccccc32)cc1N1CCN(C)CC1,0.402%,7.44%,-0.387%,-11.5%,-25.9%
C/C(=C\CCC1(C)C2CC3C(C2)C31C)C(=O)O (stereo not drawn),-10.5%,-12.6%,-1.99%,-28%,-5.76%
CC(C)n1c(=O)c2ccc(C(=O)NC3CCCCC3)cc2n2c(=O)n(Cc3ccc(Cl)cc3)nc12,2.1%,0%,8.55%,5.93%,6.13%
COc1ccc(C2=NC(c3ccc(Cl)cc3)C(c3ccc(Cl)cc3)N2C(=O)N2CCNC(=O)C2)c(OC(C)C)c1 (stereo not drawn),1.28%,16.8%,11%,-37%,10.7%
CCC(C)NC(=O)c1ccc2c(=O)n(C)c3nn(CC(=O)c4ccc(C)cc4)c(=O)n3c2c1 (stereo not drawn),4.13%,1.12%,5.91%,5.12%,4.77%
Cc1ccc(C(=O)Cn2nc3n(Cc4ccc(F)cc4)c(=O)c4ccccc4n3c2=O)c(C)c1,5.01%,0%,8.63%,5.78%,5.33%
CCc1ccccc1NC(=O)c1ncn2c1C(=O)N(C1CC1)C(C)(C(=O)NC1CCCC1)C2 (stereo not drawn),-7.75%,4.81%,-4.04%,-8.37%,-6.84%
COc1ccc2cc3n(c2c1)CC(C)(C(=O)NC1CCCCC1)N(c1ccccc1OC)C3=O (stereo not drawn),4.16%,2.74%,6.4%,-3.95%,0.142%
CCNC(=O)N1CCC(CCOC)(NS(=O)(=O)c2cccc3cccnc23)CC1,0.121%,0.726%,1.71%,-2.86%,-1.46%
CN1C(=O)c2cc(C(=O)NCc3ccccc3)nn2CC1(C)C(=O)NC1CCCCCC1 (stereo not drawn),-1.07%,0%,3.52%,-3.36%,0.396%
CCN(CC)CCNC(=O)c1c(C)[nH]c(/C=C2\C(=O)Nc3ccc(F)cc32)c1C,-23.3%,-7.77%,-33.6%,-16.7%,-19.3%
CCCN1C(=O)c2cc3c(OC)ccc(OC)c3n2CC1(C)C(=O)NC1CCCC1 (stereo not drawn),-21.8%,-1.03%,-3.2%,-5.38%,-21.9%
CC(=O)Nc1ccc(Nc2nc3c(S(=O)(=O)c4ccc(Br)cc4)nnn3c3ccccc23)cc1,-12.3%,0%,4.17%,-1.29%,-5.25%
COc1ccc(/C=C/C(=O)Nc2ccccc2C(=O)O)cc1OC,-18.3% and -27.8%,-2.15% and -2.83%,-2.23% and -10.8%,-15.9% and -14.4%,-3.79% and -4.18%
CCCN1C(=O)c2c(C(=O)NCc3ccccc3C)ncn2CC1(C)C(=O)NCCC(C)C (stereo not drawn),1.61%,2.08%,2.47%,-0.523%,6.09%
CCOc1cc2ncc(C#N)c(Nc3ccc(F)c(Cl)c3)c2cc1NC(=O)/C=C/CN(C)C,-95.8%,-95.7%,-94.5%,-98.5%,-96.5%
CC1(C(=O)NC2CCCCCC2)Cn2nc(C3CC3)cc2C(=O)N1Cc1cccc(Br)c1 (stereo not drawn),-6.5%,3.24%,-0.886%,-12.8%,-2.22%
COc1ccc(OC)c(S(=O)(=O)N2CCC(n3c(C)cnc3C3CC3)CC2)c1,0.301%,0%,-5.71%,2.24%,3.88%
CCCc1c(-c2ccc(O)cc2)nn(-c2ccc(O)cc2)c1-c1ccc(O)cc1,-22.1%,-6.7%,-7.73%,-51%,-13.8%
CCCC1c2cccn2CCN1C(=O)Nc1cccc(Cl)c1C (stereo not drawn),-3.29%,1.68%,-35.1%,-0.853%,4.46%
CCc1ccc(N2C(=O)c3cc4ccccc4n3CC2(C)C(=O)NCCC(C)C)cc1 (stereo not drawn),4.78%,0.164%,10.4%,2.3%,0.914%
O=C(N[C@H]1CO[C@H]2[C@@H]1OC[C@@H]2Nc1nccc(C2CCCC2)n1)c1ccco1,-13.5%,-0.939%,-2.65%,-17.8%,-16%
CC1(C(=O)NC2CCCCCC2)Cn2c(cc3sccc32)C(=O)N1c1cccc(F)c1 (stereo not drawn),4.26%,0.46%,4.77%,8.52%,0.615%
CC1(C(=O)NC2CCCC2)Cn2c(c(-n3cccc3)c3ccccc32)C(=O)N1Cc1cccnc1 (stereo not drawn),7.01%,0%,4.88%,0.37%,4.48%

Structure (SMILES),"activity change, negative = inhibition [1]","activity change, negative = inhibition [2]","activity change, negative = inhibition [3]","activity change, negative = inhibition [4]","activity change, negative = inhibition [5]"
C=C[C@](C)(CC/C=C(\C)C(=O)O)O[C@@H]1OC[C@H](O)[C@H](O)[C@H]1O,0.463%,0.339%,7.41%,-12.1%,-0.449%
CC(C)(C)Nc1nc(Nc2ccc(C(N)=O)cc2)cc(N)c1C#N,-27.4%,-2.49%,-24%,-21.6%,-11.3%
COCCCNC(=O)C1(C)Cn2nc(-c3ccccc3)cc2C(=O)N1Cc1ccccc1Cl (stereo not drawn),1.47%,0.19%,3.15%,4.23%,-2.4%
NC(=O)c1ccc2[nH]ccc2c1,-4.14%,-0.982%,-2.57%,-13.3%,-4%
CCN(CC)c1nc2c(-c3ccc(F)cc3)nnn2c2ccccc12,-0.268%,0%,7.85%,1.74%,-2.76%
Cc1c(-c2ccnc(Nc3cc(Br)cc(C(F)(F)F)c3)n2)sc(=O)n1C,–,-5.43%,–,-0.329%,-5.67%
COCc1nnc2n1CCC(NC(=O)CCc1c(C)noc1C)CC2 (stereo not drawn),-5.62%,-9.83%,-5.32%,-13.8%,-9.6%
CC(C)Cn1c(=O)c2ccc(C(=O)NC(C)C)cc2n2c(SCc3ccccc3F)nnc12,-1.12%,2.71%,-2.58%,1.19%,-3.58%
CCCN1CCC=C(c2cc(-c3ccc(C)cc3)no2)C1,1.66%,13.3%,5.76%,-6.49%,2.15%
COc1ccc(CNC(=O)c2cc3n(n2)CC(C)(C(=O)NCc2ccc(F)cc2)N(C)C3=O)c(OC)c1 (stereo not drawn),-5.81%,-0.016%,-9.03%,-9.08%,-1.64%
CCc1cc2c(cc3n2CC(C)(C(=O)NC2CCCCCC2)N(CCc2ccccc2)C3=O)s1 (stereo not drawn),5.52%,0.905%,8.75%,7.4%,0.864%
C=C1CCCC2(C)CCC(C(C)(C)OC3OC(C)C(O)C(O)C3OC(=O)/C(C)=C\C)CC12 (stereo not drawn),-3.39%,4.11%,11.3%,-19%,-9.41%
OCCC#Cc1ccc(CN2CCC(CO)(Cc3ccccc3Cl)CC2)cc1,-2.5%,-2.32%,-20%,-10.1%,-14%
O=C(N1CCCC1)N1CCCC(c2nnc3n2CCNC3)C1 (stereo not drawn),-2.45%,-2.64%,-3.34%,-3.11%,-3.58%
Cn1nccc1CN1CC2(C1)C(=O)Nc1ccccc12,-7.69%,0.521%,-17.4%,-2.08%,-1.12%
Cc1ccc(CNC(=O)C2(C)Cn3nc(C(=O)NCCCOC(C)C)cc3C(=O)N2C)cc1 (stereo not drawn),1.84%,2.47%,0.699%,0.621%,-1.16%
O=C1C=CC2OC(c3ccccc3)C(O)C2O1 (stereo not drawn),4.06%,3.17%,10.7%,-7.83%,1.3%
Cc1[nH]nc(CCC(=O)N2CC[C@@H](NC(=O)c3cnccn3)[C@H](O)C2)c1C,-3.92%,-6.88%,-3.97%,-4.47%,-3.46%
CSc1ccc(CN2C(=O)c3cc4ccccc4n3CC2(C)C(=O)NCCCOC(C)C)cc1 (stereo not drawn),-0.205%,2.54%,2.9%,-4.61%,-1.77%
O=C(Cn1ccc2cc(S(=O)(=O)N3CCCCC3)ccc21)NCc1cccc(Br)c1,-0.133%,-0.27%,2.89%,-4.1%,-3.82%
CN(C)CCOCC1(C)COc2ccc(C(=O)Nc3ccc4[nH]ccc4c3)cc2N1 (stereo not drawn),-11.7%,-9.43%,-87.6%,-9.42%,-11.3%
O=C(c1ccoc1)N1CCN(c2cc(C3CC3)ncn2)CC(O)C1 (stereo not drawn),-2.9%,-4.78%,-1.01%,-7.09%,-4.07%
CN1C(=O)CCCCC1C(=O)NCCN1CCCCC1 (stereo not drawn),-9.57%,-13.3%,-9.01%,-16.7%,6.11%
CC1(C(=O)NC2CCCCC2)Cn2nc(-c3ccco3)cc2C(=O)N1Cc1ccccc1F (stereo not drawn),-2.61%,-1.85%,4.27%,5.09%,0.852%
O=C(NCc1cccnc1)c1ccc2c(=O)nc3c(-c4ccc(F)cc4)n[nH]n3c2c1,-2.31%,-0.778%,0.529%,3.54%,-5.41%
CCCn1c(=O)c2ccc(C(=O)NC(C)CC)cc2n2c(=O)n(CC(=O)Nc3ccc(C)cc3)nc12 (stereo not drawn),1.27%,3.77%,0.832%,-0.806%,-2%
CC1(C(=O)NC2CCCCCCC2)Cn2c(cc3sccc32)C(=O)N1Cc1ccccc1 (stereo not drawn),-9.54%,-1.47%,-3.37%,-15.3%,-6.26%
